# Measured values reported in PubChem BioAssay AID504466 (National Center for Advancing Translational Sciences (NCATS), 2011).
# Among all 330,000 compounds or so, about 4,200 (1.3%) were called active. Inconclusive results, whose numbers are uncertain, are shown with a selection of clear calls. Calls come from the whole dose curve; as a rule, active = well fitted activation curve with a large enough effect; inconclusive = small, poorly fitted or top-dose-only effect; inactive = no such curve, though single readings can be large or run the other way. Potencies beside an inconclusive call are fits to weak or partial responses and may not hold up.
# Experiment: qHTS screen for small molecules that induce genotoxicity in human embryonic kidney (HEK293T) cells expressing luciferase-tagged ELG1; note: nearly all actives have a fitted effect of over 60% in size
# Settings: HEK293T ELG1-luciferase reporter, luminescence, 16 h; series mostly up to 46 µM
# Description: NIH Molecular Libraries Probe Production Network [MLPCN] NIH Chemical Genomics Center [NCGC] MLPCN Grant: 1 R03 MH092164-01 Assay Provider: Kyungjae Myung, NHGRI, NIH Keywords: MLPCN, qHTS, NCGC, genotoxicity, cancer Assay Overview: Cancer cells divide rapidly compared to normal cells in the body. During cell division, cancer cells need to duplicate their genome by DNA replication. The failure of genome duplication leads to cancer cells' death. Therefore, inhibitors of DNA replication could specifically kill cancer cells. Based on this concept, many chemotherapeutic agents were developed and have been used to treat cancer patients. However, there are a limited number of agents available in the clinical setting, and some of those that do exist have low efficacy and severe side effects. Therefore, if we can find the compounds that effectively block DNA replication either by directly damaging DNA or by inhibiting other cellular mechanisms, the options for cancer treatment will be broadened. With this in mind, we developed a quantitative high-throughput ELG1-luciferase reporter gene assay. Since the level of human ELG1 protein is enhanced in response to genetic stresses, increases in luciferase activity can be used to identify compounds that cause genetic stress.
# Assay Protocol Summary: For genotoxicity screening, 2,000 cells in 5 uL/well were dispensed into white, solid-bottom 1536-well plates using a solenoid-based dispenser. Following transfer of 23 nL compound or DMSO vehicle by a pin tool, the plates were incubated 16 hr at 37 °C and 5% CO2. 5 ul ONE-Glo (Promega) was then added to each plate and following a 30 min incubation at room temperature, luciferase activity was quantified on a ViewLux CCD-based plate reader.
# Potency is the fitted concentration of half-maximal effect; tags give direction and shape of the fitted curve.
row,Compound,Potency
1,CC(C)c1ccc(/C=C/C(=O)CCC(=O)O)cc1,"inconclusive: 1.16 µM [activator, partial curve, poor fit]"
2,c1ccc(COc2ccc3nocc3c2)cc1,"inconclusive: 11.6 µM [activator, partial curve]"
3,O=C(CSc1nncs1)NC(=O)Nc1ccc2c(c1)OCCO2,"inconclusive: 16.4 µM [activator, partial curve]"
4,COc1ccc(-c2csc(C3=C(O)CN(C(C)C)C3=N)n2)cc1OC,"inconclusive: 10.3 µM [activator, partial curve, poor fit]"
5,COc1ccc(CNC(=O)C(=O)NC2CC(C)(C)NC(C)(C)C2)cc1,inactive
6,COc1ccc(C(=O)NNC(=O)c2ccc3ccccc3n2)cc1,"inconclusive: 23.1 µM [activator, single point]"
7,Cc1ccsc1/C=C/c1ccc2ccccc2n1,"inconclusive: 0.651 µM [activator, full curve]"
8,CC(C)(C)c1ccc(C(=O)NC(=S)Nc2nc3c(s2)CCCC3)cc1,"inconclusive: 18.4 µM [activator, single point]"
9,CCCCn1c(=O)[nH]c(=O)c2c1nc(-c1ccc(CC)c([N+](=O)[O-])c1)n2C,"inconclusive: 20.6 µM [activator, partial curve, poor fit]"
10,CCN(CC)CCNc1ncnc2c1sc1nc(N3CCOCC3)c3c(c12)CCCC3,"inconclusive: 20.6 µM [activator, single point]"
11,C/C(=N\NC(=O)c1cc(-c2ccco2)nc2ccccc12)c1cccnc1,inactive
12,CCOC(=O)C1CCCN(c2ncnc3c2cnn3-c2ccc(OC)cc2)C1 (stereo not given),active: 5.17 µM
13,CSC1=C(C#N)C(c2ccccc2Cl)C2=C(N1)c1ccccc1C2=O (stereo not given),inactive
14,CCOC(=O)CN1C(=O)S/C(=C/c2ccc3c(c2)n(C)c(=O)n3C)C1=O,active: 20.6 µM
15,O=C(Nc1ccc(Cn2cccn2)cc1)c1ccc(COc2cccc(Br)c2)cc1,"inconclusive: 2.59 µM [activator, partial curve]"
16,COc1ccc2oc(=O)c(C(=O)Nc3cccc(C)c3)cc2c1,active: 8.2 µM
17,Cc1csc(NC(=O)/C=C/c2ccco2)n1,"inconclusive: 4.61 µM [activator, full curve]"
18,Cc1nc(-c2ccc(C(=O)Nc3cccc(F)c3)cc2)cs1,"inconclusive: 0.517 µM [activator, partial curve]"
19,O=c1sc2ccccc2n1COc1ccc(Cl)cc1,"inconclusive: 23.1 µM [activator, single point]"
20,Cn1c(NCc2ccccc2O)nc2ccccc21,"inconclusive: 11.6 µM [activator, partial curve, poor fit]"
